These results are taken from paper PMC4336329 (PLoS ONE, 2015).

The structures appear in SMILES notation. The whole screen tested about 310,000 compounds, of which about 2,200 (0.71%) showed an effect of 50% or more. The effect is printed as a negative number. The list shows a part of the results.

This assay deals with human ether-à-go-go-related gene (hERG) potassium channel (human, UniProt Q12809). Briefly: primary screen, population patch clamp on CHO cells stably expressing hERG.
Chain of human ether-à-go-go-related gene (hERG) potassium channel (Q12809 whole entry, looked up): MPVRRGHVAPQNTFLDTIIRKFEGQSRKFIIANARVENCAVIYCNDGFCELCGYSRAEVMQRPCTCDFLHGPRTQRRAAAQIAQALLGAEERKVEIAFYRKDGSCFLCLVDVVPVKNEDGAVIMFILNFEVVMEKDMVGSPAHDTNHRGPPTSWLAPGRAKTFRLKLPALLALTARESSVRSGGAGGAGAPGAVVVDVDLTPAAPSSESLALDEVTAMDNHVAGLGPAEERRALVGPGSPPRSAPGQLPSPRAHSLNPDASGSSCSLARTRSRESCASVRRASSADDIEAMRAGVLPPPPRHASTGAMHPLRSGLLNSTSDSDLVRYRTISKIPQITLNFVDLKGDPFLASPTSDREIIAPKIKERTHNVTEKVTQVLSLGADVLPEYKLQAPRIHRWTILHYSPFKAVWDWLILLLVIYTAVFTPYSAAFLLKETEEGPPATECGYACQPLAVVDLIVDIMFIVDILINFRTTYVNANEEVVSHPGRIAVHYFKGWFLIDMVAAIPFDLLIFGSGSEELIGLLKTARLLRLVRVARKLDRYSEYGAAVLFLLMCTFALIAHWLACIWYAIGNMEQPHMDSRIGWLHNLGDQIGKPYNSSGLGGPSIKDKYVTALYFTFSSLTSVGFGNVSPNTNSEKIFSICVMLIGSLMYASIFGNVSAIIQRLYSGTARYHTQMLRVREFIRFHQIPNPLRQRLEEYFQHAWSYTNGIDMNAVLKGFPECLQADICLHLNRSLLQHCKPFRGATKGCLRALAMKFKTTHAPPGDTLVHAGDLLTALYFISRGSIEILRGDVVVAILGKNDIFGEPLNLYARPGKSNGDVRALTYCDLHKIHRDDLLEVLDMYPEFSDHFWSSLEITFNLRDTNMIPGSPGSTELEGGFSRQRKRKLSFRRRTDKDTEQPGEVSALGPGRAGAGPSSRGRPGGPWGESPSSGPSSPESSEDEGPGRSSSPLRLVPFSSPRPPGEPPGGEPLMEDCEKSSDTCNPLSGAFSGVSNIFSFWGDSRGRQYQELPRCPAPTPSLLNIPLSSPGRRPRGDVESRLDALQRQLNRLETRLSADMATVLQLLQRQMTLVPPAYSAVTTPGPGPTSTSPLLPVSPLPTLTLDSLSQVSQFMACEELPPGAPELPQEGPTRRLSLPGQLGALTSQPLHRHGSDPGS
On to `O=C(Nc1ccc(F)cc1)c1cnc(-c2ccccc2)nc1-c1ccccc1`, for which the “hERG current change (%, negative = inhibition) at 1uM” value is given as 4.6%.
Regarding `CC(=O)Nc1cccc(C(=O)OCc2ccccc2)c1`, the “hERG current change (%, negative = inhibition) at 1uM” value was found to be 6.75%.
Regarding `COc1ccc(NC(=O)c2nnn(CC(=O)Nc3ccc4c(c3)OCO4)c2N)cc1OC`, the “hERG current change (%, negative = inhibition) at 1uM” value is 17.5%.
The same measure for `COc1ccc(Cn2nnnc2C(CC(C)C)N2CCC(C(N)=O)CC2)cc1` (centres unmarked): 4.16%.
For the compound `O=[N+]([O-])c1ncc(Br)cc1Nc1ccccc1`, the “hERG current change (%, negative = inhibition) at 1uM” value amounted to 16.5%.
Take `CN1CCN(C(=S)c2ccc(-c3cc(Cl)ccc3Cl)o2)CC1`: the “hERG current change (%, negative = inhibition) at 1uM” value was 3.09%.
For the compound `CCC(=O)Nc1ccc(C2C(=O)c3ccccc3C2=O)cc1`, the “hERG current change (%, negative = inhibition) at 1uM” value turned out to be 5.37%.
In the case of `Cc1cccc(NC(=O)CSc2nc3nc4c(cc3c(=O)n2-c2ccccc2)CCCC4)c1` it was 8.42%; in that of `CC(=O)c1ccc(NC(=O)N2C[C@H]3C[C@@H](C2)c2cccc(=O)n2C3)cc1`, 2.86%.
For the compound `CCOc1cc(/C=N/O)ccc1OCC(=O)Nc1cccc(C)c1`, the “hERG current change (%, negative = inhibition) at 1uM” value was 14.7%.
`CCNC(=S)Nc1ccc(S(=O)(=O)Nc2cc(C)nc(C)n2)cc1`: the “hERG current change (%, negative = inhibition) at 1uM” value is on record as 13.9%.
On to `Cc1cc(C(=O)COC(=O)c2csc3c2CCCC3)c(C)n1C`, for which the “hERG current change (%, negative = inhibition) at 1uM” value came out at 14.2%.
In the case of `COC(=O)c1ccc(CN2CCC(CO)(Cc3ccc(OC)cc3)CC2)cc1` it was -35.1%.
Regarding `CCOC(=O)C1CCN(C(=S)Nc2cc(OC)c(OC)cc2C(=O)OC)CC1`, the “hERG current change (%, negative = inhibition) at 1uM” value is -9.76%.
`O=C(CSc1ccccc1)N1CCN(S(=O)(=O)c2ccccc2F)CC1`: the “hERG current change (%, negative = inhibition) at 1uM” value is 5.46%.
The same measure for `O=C(c1cccc(S(=O)(=O)NCc2ccccc2)c1)N1CCN(c2ccc(F)cc2)CC1`: -41.7%; for `CCCC(=O)N(CCN1CCOCC1)c1nc2c(OC)ccc(OC)c2s1.Cl`: -2.71%; for `CC(=O)Nc1ccc(S(=O)(=O)Nc2nc3ccc([N+](=O)[O-])cc3s2)cc1`: 15.7%.
Consider `N#Cc1ccc(NC(=O)COC(=O)CNC(=O)C2CCCCC2)cc1`, for which the “hERG current change (%, negative = inhibition) at 1uM” value worked out at 2.65%.
Take `COCCNC(=O)C(c1ccc(C)cc1)N(C(=O)C(=O)NC1CCCC1)c1ccc2c(c1)OCCO2` (centres unmarked): the “hERG current change (%, negative = inhibition) at 1uM” value is 10.9%.
Turning to `CN(C)S(=O)(=O)c1cccc(COC(=O)c2cnccn2)c1`, the “hERG current change (%, negative = inhibition) at 1uM” value was determined as 11.7%.
`CCOc1ccc(Cl)cc1CSc1ncn[nH]1`: the “hERG current change (%, negative = inhibition) at 1uM” value is listed as 6.7%.
In the case of `COc1cccc(CNc2ccc(Br)cn2)c1O` it was 6.11%.
As to `O=C(NCc1ccccc1Cl)C(=O)c1c[nH]c2ccccc12`, the “hERG current change (%, negative = inhibition) at 1uM” value is recorded as 3.01%.
As to `CC(=O)Nc1ccc(N(C(=O)c2ccco2)C(C(=O)NC2CCCC2)c2ccc(N(C)C)cc2)cc1` (centres unmarked), the “hERG current change (%, negative = inhibition) at 1uM” value was determined as 4.66%.
As for `CCCCC(OC(=O)c1cc2occc2n1C)C(=O)NCC1CCCO1` (centres unmarked), the “hERG current change (%, negative = inhibition) at 1uM” value is -1.76%.
Turning to `O=C(CSCc1ccc(F)cc1)Nc1ccc(N2CCOCC2)cc1N1CCOCC1`, the “hERG current change (%, negative = inhibition) at 1uM” value is given as -14.6%.
The same measure for `CS(=O)(=O)N(CC(=O)NCc1ccc(Cl)cc1)C1CCCCC1`: 1.26%; for `COc1ccccc1N1CCN(CC(=O)Nc2ccc(S(=O)(=O)N3CCCCCC3)cc2)CC1`: -4.52%.
Turning to `Nc1nc(NC(=O)/C=C/c2ccccc2)nn1-c1ccccc1`, the “hERG current change (%, negative = inhibition) at 1uM” value is reported as 1.83%.
Regarding `O=C(CSc1nc(-c2ccco2)cc(C(F)(F)F)n1)Nc1ccc(C(=O)N2CCOCC2)cc1`, the “hERG current change (%, negative = inhibition) at 1uM” value is given as -0.708%.
For the compound `CC(Cc1cccs1)NC(=S)Nc1ccc(Cl)c(Cl)c1` (centres unmarked), the “hERG current change (%, negative = inhibition) at 1uM” value came to 6.68%.
Consider `CCOC(=O)c1cccc(NC(=O)CCn2c(=O)oc3ccccc32)c1`, for which the “hERG current change (%, negative = inhibition) at 1uM” value was 2.04%.
As for `Cc1ccc(C)c(N(C(=O)c2snc(C(N)=O)c2N)C(C(=O)NCC2CCCO2)c2cccs2)c1` (centres unmarked), the “hERG current change (%, negative = inhibition) at 1uM” value was 4.75%.
`CCOc1ccc(CC(C(N)=O)C(N)=O)cc1CN(C)C`: the “hERG current change (%, negative = inhibition) at 1uM” value is recorded as 10.9%.
In the case of `CC(=O)c1cc(C#N)c(NCc2cc(-c3ccccc3)no2)nc1C` it was 4.29%; in that of `CC(C)c1ccc(NC2=CC(=O)CC(C)(C)C2)cc1`, 13.2%.
The same measure for `Cc1ccc(C2C(=O)N(C3CCC(C)CC3)CC(=O)N2C2CCCC2)cc1` (centres unmarked): -13.1%; for `CCOC(=O)c1c(C)[nH]c(C)c1S(=O)(=O)N1CCN(c2ccc(F)cc2)CC1`: -4.36%; for `C[C@@]12C(=O)N(CC3CCCO3)CC(=O)N1[C@H]1c3ccccc3OC[C@@H]1[C@@H]2c1ccccc1` (some centres unmarked): 9.67%.
On to `O=C(NC(NNc1ccc([N+](=O)[O-])cc1)(C(F)(F)F)C(F)(F)F)c1ccc(F)cc1`, for which the “hERG current change (%, negative = inhibition) at 1uM” value was 7.02%.
Take `O=C(/C=C/c1ccccc1)OCc1cncs1`: the “hERG current change (%, negative = inhibition) at 1uM” value worked out at 12.6%.
Consider `CC1CN(S(=O)(=O)c2ccc(CN3C(=O)c4cccnc4C3=O)s2)c2ccccc2O1` (centres unmarked), for which the “hERG current change (%, negative = inhibition) at 1uM” value was 0.571%.
As to `N=C1C(c2ccccc2)=C(O)CN1NC(=O)c1ccccc1`, the “hERG current change (%, negative = inhibition) at 1uM” value was found to be 10.8%.
Take `CNC(=S)NCC(O)c1ccc([N+](=O)[O-])cc1` (centres unmarked): the “hERG current change (%, negative = inhibition) at 1uM” value was found to be 5.44%.
In the case of `O=C(NN=C1CCCCCCC1)c1ccccn1` it was 6.72%.
Turning to `COc1ccc(OCCCC(=O)NCCc2ccc(OC)c(OC)c2)cc1`, the “hERG current change (%, negative = inhibition) at 1uM” value is on record as 17.3%.
Regarding `CC(NC(=O)Nc1cccc(Cl)c1)C(c1cccs1)N1CCCC1` (centres unmarked), the “hERG current change (%, negative = inhibition) at 1uM” value is given as -2.04%.
Consider `NC(=O)c1ccsc1NC(=O)COC(=O)c1c(F)cccc1Cl`, for which the “hERG current change (%, negative = inhibition) at 1uM” value is 7.49%.
In the case of `CCOC(=O)N1CCN(C(=S)Nc2ccc(C)cc2C)CC1` it was 0.56%; in that of `O=C(CSc1ccc(-c2ccco2)nn1)NCc1ccccc1`, 2.16%; in that of `CCN(CC)S(=O)(=O)c1ccc(NC(=O)CNC2CCCCC2)cc1.O=C(O)C(=O)O`, 12.2%.
On to `Cc1ccc(C(=O)NCC2CCCN2S(=O)(=O)c2cccs2)cc1C` (centres unmarked), for which the “hERG current change (%, negative = inhibition) at 1uM” value is recorded as 16.9%.
For the compound `O=C(Nc1ccc(CSc2ccccc2)cc1)c1ccc(CN2CCOCC2)cc1`, the “hERG current change (%, negative = inhibition) at 1uM” value was determined as 7.08%.
Consider `COC(=O)c1ccc(CSc2nc(C)nc3c2c(=O)n(C)c(=O)n3C)o1`, for which the “hERG current change (%, negative = inhibition) at 1uM” value was found to be 16%.
As for `CC(C)CCn1c(SC(C)C(=O)NC2CC2)nc2ccccc2c1=O` (centres unmarked), the “hERG current change (%, negative = inhibition) at 1uM” value is 15.1%.
With `CCn1cc(CN2CCCC(C(=O)Nc3ccc(-c4cscn4)cc3)C2)c(C)n1` (centres unmarked), the “hERG current change (%, negative = inhibition) at 1uM” value came to 16.1%.
As for `COc1ccc2c(c1)c(=O)oc1c(C)c(OC(C)C(=O)NCC3CCC(C(=O)O)CC3)ccc12` (centres unmarked), the “hERG current change (%, negative = inhibition) at 1uM” value was 17%.
With `COc1ccc(-c2noc(-c3ccccc3C(=O)N3CCOCC3)n2)cc1`, the “hERG current change (%, negative = inhibition) at 1uM” value was -5.83%.
For `Cn1c(-c2ccccc2F)cc2onc(-c3ccccc3)c2c1=O`, the “hERG current change (%, negative = inhibition) at 1uM” value is 1.78%.
Take `O=C(NC(=S)NCC1COc2ccccc2O1)c1ccccc1` (centres unmarked): the “hERG current change (%, negative = inhibition) at 1uM” value was determined as 10.2%.
Regarding `COCCn1c(SCC(=O)NCc2ccc(OC)c(OC)c2)nc2ccccc21`, the “hERG current change (%, negative = inhibition) at 1uM” value is recorded as 14.2%.
For `Cc1ccc(C(=O)N2C(=O)c3cccc(N)c3C2=O)o1`, the “hERG current change (%, negative = inhibition) at 1uM” value was 1.2%.
Take `COC(=O)CCCC(=O)N1CCC(CCC(=O)NCc2ccc(F)cc2)CC1`: the “hERG current change (%, negative = inhibition) at 1uM” value is reported as 4%.
Consider `NNC(=O)CN1C(=O)Nc2ccc(Br)cc2C1c1ccccc1` (centres unmarked), for which the “hERG current change (%, negative = inhibition) at 1uM” value is 9.17%.
Take `CCOC(=O)N1CCN(Cc2oc(CO)cc(=O)c2O)CC1`: the “hERG current change (%, negative = inhibition) at 1uM” value was determined as 8.48%.
The same measure for `CCn1ncc([N+](=O)[O-])c1C(=O)Nc1nc2cccc(C)c2s1`: 13.4%; for `O=c1cc([O-])n(C2CCCCCC2)c(=O)[nH]1.[NH4+]`: 11.6%.
With `COc1ccc(N2CCN(Cc3nc4ccccc4[nH]3)CC2)cc1`, the “hERG current change (%, negative = inhibition) at 1uM” value turned out to be 11.1%.
The same measure for `CC1(C(=O)O)CCC(C(=O)N2CCOCC2)C1(C)C` (centres unmarked): 7.78%; for `COc1cccc(CC2(CO)CCN(Cc3ccc4cccc(F)c4n3)CC2)c1`: -4.61%; for `COC(=O)c1[nH]c2ccccc2c1NC(=O)CN1CCCCCC1`: -3.6%.
Turning to `COc1ccccc1N1CCN(C2CCN(C(=O)COc3ccccc3)CC2)CC1`, the “hERG current change (%, negative = inhibition) at 1uM” value stood at 0.692%.
`CCOC(=O)c1nn(-c2ccc(C)cc2)c(=O)cc1OCC(=O)Nc1ccc(OC)cc1`: the “hERG current change (%, negative = inhibition) at 1uM” value is on record as 13.5%.
Turning to `Cc1ccc(NC(=O)CC(=O)Nc2ccc(C)cc2)cc1`, the “hERG current change (%, negative = inhibition) at 1uM” value was 15.6%.
`CCCCCCCCCCCCC(=O)CCCCC(=O)O`: the “hERG current change (%, negative = inhibition) at 1uM” value was -6.15%.
For `CC(C)(C)OC(=O)N/N=C\c1ccc([N+](=O)[O-])s1`, the “hERG current change (%, negative = inhibition) at 1uM” value was 9.29%.
On to `O=C(O)CCSc1ccc2ccccc2n1`, for which the “hERG current change (%, negative = inhibition) at 1uM” value is 3.83%.
The same measure for `CCc1nnc(NC(=O)c2cccs2)s1`: 14.2%; for `CCOCCCNC(=O)CNC(=S)N(Cc1ccccc1F)C1CCCCC1`: -6.79%; for `COc1ccc(OC)c(NC(=O)Cc2nn(C)c(=O)c3ccccc23)c1`: 10.7%.
As for `COC(=O)CSCC(=O)Nc1cc2c(cc1C(C)=O)OCO2`, the “hERG current change (%, negative = inhibition) at 1uM” value is given as 9.01%.
In the case of `COc1ccc2[nH]c(=O)c(COC(=O)c3cccs3)cc2c1`, the “hERG current change (%, negative = inhibition) at 1uM” value is -1.61%.
For `COC(=O)c1c(NC(=O)CN(C)CC(=O)Nc2ccc(C)cc2)sc2c1CCC(C)C2` (centres unmarked), the “hERG current change (%, negative = inhibition) at 1uM” value is reported as -14.1%.
For `O=C1CC(c2ccccc2)CN1S(=O)(=O)c1ccccc1` (centres unmarked), the “hERG current change (%, negative = inhibition) at 1uM” value was determined as 5.77%.
The same measure for `COC(=O)/C=C1/C(=O)N/C(=N\c2nc(C)cc(C)n2)N1c1ccc(OC)cc1`: 12.5%; for `COc1ccccc1CC(=O)NC(=O)c1ccccc1O`: 29.7%; for `Cc1ccc2nsnc2c1S(=O)(=O)N1CCN(C(=O)C2CCCO2)CC1` (centres unmarked): 0.95%.
Consider `O=C(NCc1ccccc1Cl)c1ccc(NC2=NC3CS(=O)(=O)CC3S2)cc1` (centres unmarked), for which the “hERG current change (%, negative = inhibition) at 1uM” value is on record as 1.4%.
